The text below walks through data of PMC5675595.

Amino acid sequences for entries named in this document (tags omitted).
UniProt Q6PDM2: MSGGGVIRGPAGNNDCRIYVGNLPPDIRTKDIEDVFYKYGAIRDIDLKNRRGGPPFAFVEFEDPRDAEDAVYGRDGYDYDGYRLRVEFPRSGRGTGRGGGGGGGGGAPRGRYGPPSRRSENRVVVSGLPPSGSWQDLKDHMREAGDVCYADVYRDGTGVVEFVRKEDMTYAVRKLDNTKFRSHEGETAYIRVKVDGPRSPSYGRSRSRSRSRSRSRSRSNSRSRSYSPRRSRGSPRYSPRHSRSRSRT

This assay addresses SRSF1 (endogenous, mouse macrophages) (mouse (endogenous in BMDMs)) (UniProt Q6PDM2). Nature of the assay: co-IP; nuclear extracts of mouse macrophages (WT BMDMs; control siRNA macrophages) treated with LPS for the indicated times; IP with anti-IRAK2, anti-SRSF1 or anti-ALYREF; western blot.

These are yes or no findings as the source states them, for the method shown. Binding seen in cells or lysates may run through a third protein. Some entries that bind do so weakly or less than the wild type.

B1: IRAK2 (endogenous, wild-type macrophages) (protein, UniProt Q8CFA1 1-622)
chain: MACYIYQLPSWVLDDLCRNIDTLSEWDWMQFASYVITDLTQLRKIKSMERVQGVSITRELLWWWSMRQATVQQLVDLLCHLELYRAAQIVLSWKPVPESTSPLPAFPEAVKPGAVATSRRNLKDEQEKVRPVKPRSLLDTGPIMAGAQRQRPCEMDAPCSLKTDAPDSPQSKYCSTSTSAPKQERLLGLPGDRLFWSEADVVQATEDFDQSHRISEGTFADIYQGQRNGVAFAFKKLREVAGSSPGSMDRFLQAEMQLCLRCCHANVLPLLGFCTGRQFHSLIYPYMANGSLHDRLWAQGNSDMLPWPQRASICSGLLLAVEHLHSLDIIHSNVKSANVLLDQHLNPKLAHPVAHPHPDNKKTKYTVMRTHLFQASAAYLPEHFIRVGQLTKQVDIFSCGIVLAEVLTGIPAMDKDRSPVYLKDLLLSEIPNSTSSVCSRKTSMGKAVVKEICQRHVEKRAGLLPEACEEAWATAVSVCLRRRNASVEEARVSLAGVEEQLRGQLSLPWSRVSEATGSSSNTPEETDDVDNSSLSVPSLVMMASCPGAASSPLFTGHGAAQPSTSGRQEADSSSEACTGPQTPQNATETSWKIEINEAKRRLMENIVLYKEERLDSSELFGP
Turning to B1, the binding result is listed as “binds”.
